Data from patent publication US5512549A, “Glucagon-like insulinotropic peptide analogs, compositions, and methods of use” (Eli Lilly and Company, priority 1994, dated 1996).
Part of at least one peptide drawing is inferred or uncertain, most often the ends. Where a SMILES comes first, the peptide text is derived from it. The star is where a group is joined. Desaminohistidyl = O=C(CCc1c[nH]cn1)*; Octanoyl = CCCCCCCC(=O)*

Assays:
rat GLP-1 receptor = molecular target: T1, rat GLP-1 receptor (Rattus norvegicus, UniProt P32301); assay: cAMP Assay (in vitro receptor binding assay) on membrane preparation; format: biochemical; details: cAMP production, CHO membranes expressing rat GLP-1 receptor; mean ± spread
T1 construct: expressed in transfected cells; host or cells: CHO DXB-11 (Chinese hamster ovary) cells, used as a membrane preparation
T1 sequence (P32301 22-463): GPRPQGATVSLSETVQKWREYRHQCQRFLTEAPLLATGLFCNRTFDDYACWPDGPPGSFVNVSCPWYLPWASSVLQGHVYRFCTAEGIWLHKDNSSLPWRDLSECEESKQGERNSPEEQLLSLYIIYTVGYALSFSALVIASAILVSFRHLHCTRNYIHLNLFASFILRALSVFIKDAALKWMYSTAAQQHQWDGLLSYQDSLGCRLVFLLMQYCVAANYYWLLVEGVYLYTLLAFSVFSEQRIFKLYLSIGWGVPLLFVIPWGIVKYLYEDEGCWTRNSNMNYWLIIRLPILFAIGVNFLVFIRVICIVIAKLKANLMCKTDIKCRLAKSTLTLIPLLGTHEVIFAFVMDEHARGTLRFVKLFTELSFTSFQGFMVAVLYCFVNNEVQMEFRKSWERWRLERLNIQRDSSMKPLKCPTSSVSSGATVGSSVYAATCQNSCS

[1] = system: Sprague Dawley or Zucker Diabetic Fatty rats; assay: Rat IV Glucose (1 g/kg) Tolerance Test; format: in vivo; details: for Insulin Change AUC: 0-15 min
Procedure: a) Glucose Tolerance Tests
Experiments were conducted in overnight-fasted, conscious, male Sprague Dawley (Charles River) or Zucker Diabetic Fatty (Genetic Models, Inc.) rats weighing approximately 250 (Sprague Dawley rats) or 300 (Zucker Diabetic Fatty rats) grams. Four to five days prior the study, rats were anesthetized with isoflurane, and a polyethylene (PE50) catheter was inserted into the right jugular vein. The catheter was secured with a wound clip, filled with saline containing heparin (2% sodium heparin), and closed with a small stainless steel plug.
After a sixteen-hour fast, twelve chronically cannulated rats were separated into four groups of three rats per group. 0.4 ml of blood was taken from the tail vein, collected into a microtainer tube containing lithium heparin, and immediately placed on ice (zero minute sample). A glucose bolus (1.0 g/kg; 50% glucose (w/v) in water) was administered via the indwelling jugular cannula, and the cannula was rinsed with 200 μl of saline. Twenty seconds later a bolus of test substance 100 μl/100 g body weight of either vehicle (saline containing 0.3% (w/v) bovine serum albumin) or vehicle containing analog! was administered through the jugular cannula, and the cannula was rinsed as before. Rats were bled from the tail again at 2, 5, 10, 20 and 30 minutes after the administration of the glucose bolus, and the samples were treated as described above. At the end of the experiment, blood samples were centrifuged, and the plasma was collected.
Plasma glucose concentrations were determined the day of the experiment using a coupled hexokinase procedure in a clinical chemistry analyzer. Plasma for insulin determinations were diluted with zero calibrator and frozen at -20° C. until time for analysis. Insulin concentrations were determined using a commercial radioimmunoassay kit with rat insulin as the standard.
Insulin change (the change in insulin from the baseline value) was calculated as the difference between the insulin concentration at time t and the insulin concentration at zero time. The area under the insulin change curve was calculated using the trapezoidal rule. Plasma glucose change (the increase in plasma glucose above the baseline value) was calculated as the difference between the plasma glucose concentration at time t and the plasma glucose concentration at zero time. The area under the plasma glucose change curve was calculated using the trapezoidal rule. Values are listed as the mean ± the standard error of the mean (SEM).

Sprague Dawley rats = assay: Rat I.V. Hyperglycemic (150 mg/dl) Clamp Test; format: in vivo; details: for Insulin Change AUC: 0-15 min; for GIR Change AUC: 0-30 min; for Max Insulin Change: 90 minute test period; for Duration of Insulin Effect: time average insulin change >0 ng/ml
Procedure: b) Hyperglycemic Clamp Studies
Experiments were conducted in chronically catheterized, normal, male Sprague Dawley rats weighing about 350 grams. At least a week prior to studies, surgery was performed on the rats under isoflurane anesthesia. Two catheters were implanted into the jugular vein for infusions of glucose and peptide and one catheter into the carotid artery for blood sampling. The catheters were exteriorized through the skin at the vertex of the head, filled with glycerol/heparin solution (3:1,v/v) and closed off with a one centimeter stainless steel plug. Animals were housed individually in wire mesh cages and allowed free access to standard rat chow diet and water.
Catheterized rats were fasted overnight prior to studies. On the morning of the experiment, rats were weighed and sampling tubings connected to their indwelling catheters. The tubings were enclosed in a light weight stainless steel spring for protection. During the study, rats were kept unrestrained in a plastic shoe box cage (12"×10"×12") with about one inch of bedding. After 15 minutes of acclimation, a basal sample was taken for measurement of insulin and glucose levels. At time -60 minutes, rats were given a bolus of 20% dextrose to raise plasma glucose to 150 mg/dl. The plasma glucose concentration was maintained at this level for the duration of the study by measuring the plasma glucose concentration every five minutes and adjusting the calibrated variable infusion pump accordingly. Blood samples were collected at -15 and 0 minutes for baseline measurements. Immediately after taking the zero minute sample, peptide (130-155 μM stock concentration, diluted in phosphate buffered saline) was injected via the jugular vein catheter and flushed with saline. Blood samples were taken for glucose and insulin determinations at 2, 4, 6, 8, 10, 12, 15, 20, 25, 30, 40, 50, 60, 70, 80, and 90 minutes. All blood samples were collected into syringes coated with sodium heparin, transferred into micro centrifuge tubes and placed on ice. Blood samples were then centrifuged in a micro centrifuge to separate the plasma component.
Plasma glucose levels were determined on the day of the study by the glucose oxidase method using the Beckman Glucose Analyzer 2, while the insulin concentrations were measured by a commercial kit (Diagnostic Products Corporation) with rat insulin standard.
Insulin change (the change in insulin from the baseline value) was calculated as the difference between the insulin concentration at time t and the average insulin concentration prior to injection of test substance. The area under the insulin change curve was calculated using the trapezoidal rule. Glucose infusion rate change (the percent change in the glucose infusion rate from the baseline value) was calculated as the difference between the glucose infusion rate value at time t and the average glucose infusion rate prior to injection of test substance, divided by the average glucose infusion rate prior to injection of test substance, times 100. The area under the glucose infusion rate change curve was calculated on the absolute glucose infusion rate change values (calculated as the difference between the glucose infusion rate value at time t and the glucose infusion rate prior to injection of test substance) using the trapezoidal rule. Values are listed as the mean ± the standard error of the mean (SEM).

## CCCCCCCC(=O)NCCCC[C@H](NC(=O)[C@@H](NC(=O)[C@H](CC(C)C)NC(=O)[C@H](Cc1c[nH]c2ccccc12)NC(=O)[C@H](C)NC(=O)[C@@H](NC(=O)[C@H](Cc1ccccc1)NC(=O)[C@H](CCC(=O)O)NC(=O)[C@H](CCCNC(=N)N)NC(=O)[C@H](C)NC(=O)[C@H](C)NC(=O)[C@H](CCC(N)=O)NC(=O)CNC(=O)[C@H](CCC(=O)O)NC(=O)[C@H](CC(C)C)NC(=O)[C@H](Cc1ccc(O)cc1)NC(=O)[C@H](CO)NC(=O)[C@H](CO)NC(=O)[C@@H](NC(=O)[C@H](CC(=O)O)NC(=O)[C@H](CO)NC(=O)[C@@H](NC(=O)[C@H](Cc1ccccc1)NC(=O)[C@@H](NC(=O)CNC(=O)[C@H](CCC(=O)O)NC(=O)[C@H](C)NC(=O)CCc1c[nH]cn1)[C@@H](C)O)[C@@H](C)O)C(C)C)[C@@H](C)CC)C(C)C)C(=O)NCC(=O)N[C@@H](CCCNC(=N)N)C(=O)NCC(=O)O [N-Imidazopropionyl (Ara26 (N^ε -Octanoyl (lysyl134)))GLP-1(8-37))OH] (Desaminohistidyl-AEGTFTSDVSSYLEGQAAREFIAWLVK(Octanoyl)GRG-OH)
Rat GLP-1 receptor
  % Relative Potency: 8.8 ± 1.4%
[1]; IV dose 1.2 mg/kg
  Insulin Change at 10 min: 8.3 ng/mL
  Max Insulin Change: 8.5 ng/mL
  Insulin Change AUC: 100 ± 18 ng·min/mL
[1]; IV dose 1.6 mg/kg
  Insulin Change at 10 min: 4.3 ng/mL
  Max Insulin Change: 5.9 ng/mL
  Insulin Change AUC: 60 ± 11 ng·min/mL
[1]; IV dose 2.4 mg/kg
  Insulin Change at 10 min: 10.1 ng/mL
  Max Insulin Change: 12.9 ng/mL
  Insulin Change AUC: 128 ± 22 ng·min/mL
Sprague Dawley rats; I.V. 0.05 μg/kg
  Insulin Change AUC: 3.3 ± 1.4 ng·min/mL
  GIR Change AUC: 124 mg/kg
  Max Insulin Change: 0.5 ± 0.2 ng/mL
  Duration of Insulin Effect: 8 min
Sprague Dawley rats; I.V. 1.0 μg/kg
  Insulin Change AUC: 26.5 ng·min/mL
  GIR Change AUC: 218 mg/kg
  Max Insulin Change: 4.2 ± 1.3 ng/mL
  Duration of Insulin Effect: 30 min
Sprague Dawley rats; I.V. 2.0 μg/kg
  Insulin Change AUC: 45.4 ng·min/mL
  GIR Change AUC: 351 mg/kg
  Max Insulin Change: 5.2 ± 2.1 ng/mL
  Duration of Insulin Effect: 60 min
Sprague Dawley rats; I.V. 4.0 μg/kg
  Insulin Change AUC: 45.5 ng·min/mL
  GIR Change AUC: 380 mg/kg
  Max Insulin Change: 6.0 ± 3.0 ng/mL
  Duration of Insulin Effect: 40 min
